# This is one part of the list.
# B1: Pwp5 ND (Candida glabrata) (protein)
# chain: MGSSHHHHHHSSGLVPRGSHMASANPVPLTNVCYFPEEYPRQAGFRAITAGLASTILQGSVDELLNYSGLSSLTTQQTTTTTPNFQLPTLPLPTNVYGLTVVPLYLLVQLQGYFVPPVSGQYTFSLENTNDAAIIFFGNPSAFPCGDLSAWPQASADDITVTDGTFPSRTLFLKAGVAYPMRISYYNSLGSGNLAVSFTDPGGTKRTNWNGYIWRYNSCSTCTYT
# What was measured:
# Test in all cases: glycan array binding signal (z-score within array); higher = stronger binding
# Conditions in all cases: glycan notation: IUPAC condensed, linker removed
# [1] = target: Gal(b1-2)Gal
# Outline: (§1)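 The Consortium for Functional Glycomics database supplied 3228 glycan arrays, of which those lacking an available protein sequence were dropped. The binding signal, a within-array Z-score, was averaged across arrays of the same protein sequence and across linkers. Negative scores can be read as non-binding.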
# [2] = target: Gal(b1-3)Gal
# Outline: as §1
# [3] = target: Gal(b1-3)Gal(b1-4)GlcNAc
# Outline: as §1
# [4] = target: Gal(b1-3)GalNAc
# Outline: as §1
# [5] = target: Gal(b1-3)GalNAc(a1-3)[Fuc(a1-2)]Gal(b1-4)Glc
# Outline: as §1
# [6] = target: Gal(b1-3)GalNAc(a1-3)[Fuc(a1-2)]Gal(b1-4)GlcNAc
# Outline: as §1
# [7] = target: Gal(b1-3)GalNAc(b1-3)Gal
# Outline: as §1
# [8] = target: Gal(b1-3)GalNAc(b1-3)Gal(a1-4)Gal(b1-4)Glc
# Outline: as §1
# [9] = target: Gal(b1-3)GalNAc(b1-4)Gal(b1-4)Glc
# Outline: as §1
# [10] = target: Gal(b1-3)GalNAc(b1-4)[Neu5Ac(a2-3)]Gal(b1-4)Glc
# Outline: as §1
# [11] = target: Gal(b1-3)GlcNAc
# Outline: as §1
# [12] = target: Gal(b1-3)GlcNAc(a1-3)Gal(b1-4)GlcNAc
# Outline: as §1
# [13] = target: Gal(b1-3)GlcNAc(a1-6)Gal(b1-4)GlcNAc
# Outline: as §1
# [14] = target: Gal(b1-3)GlcNAc(b1-2)Man
# Outline: as §1
# [15] = target: Gal(b1-3)GlcNAc(b1-2)Man(a1-3)[Gal(b1-3)GlcNAc(b1-2)Man(a1-6)]Man(b1-4)GlcNAc(b1-4)GlcNAc
# Outline: as §1
# [16] = target: Gal(b1-3)GlcNAc(b1-2)Man(a1-3)[Gal(b1-3)GlcNAc(b1-2)Man(a1-6)]Man(b1-4)GlcNAc(b1-4)[Fuc(a1-6)]GlcNAc
# Outline: as §1
# [17] = target: Gal(b1-3)GlcNAc(b1-2)Man(a1-3)[GlcNAc(b1-4)][Gal(b1-3)GlcNAc(b1-2)Man(a1-6)]Man(b1-4)GlcNAc(b1-4)GlcNAc
# Outline: as §1
# [18] = target: Gal(b1-3)GlcNAc(b1-2)[Gal(b1-3)GlcNAc(b1-6)]Man(a1-6)[Gal(b1-3)GlcNAc(b1-2)Man(a1-3)]Man(b1-4)GlcNAc(b1-4)GlcNAc
# Outline: as §1
# [19] = target: Gal(b1-3)GlcNAc(b1-3)Gal(b1-3)GlcNAc
# Outline: as §1
# [20] = target: Gal(b1-3)GlcNAc(b1-3)Gal(b1-4)Glc
# Outline: as §1
# [21] = target: Gal(b1-3)GlcNAc(b1-3)Gal(b1-4)GlcNAc
# Outline: as §1
# [22] = target: Gal(b1-3)GlcNAc(b1-3)Gal(b1-4)GlcNAc(b1-2)Man(a1-3)[Gal(b1-3)GlcNAc(b1-3)Gal(b1-4)GlcNAc(b1-2)Man(a1-6)]Man(b1-4)GlcNAc(b1-4)GlcNAc
# Outline: as §1
# [23] = target: Gal(b1-3)GlcNAc(b1-3)Gal(b1-4)GlcNAc(b1-2)[Gal(b1-3)GlcNAc(b1-3)Gal(b1-4)GlcNAc(b1-6)]Man(a1-6)[Gal(b1-3)GlcNAc(b1-3)Gal(b1-4)GlcNAc(b1-2)Man(a1-3)]Man(b1-4)GlcNAc(b1-4)[Fuc(a1-6)]GlcNAc
# Outline: as §1
# [24] = target: Gal(b1-3)GlcNAc(b1-3)Gal(b1-4)GlcNAc(b1-3)Gal(b1-4)GlcNAc(b1-2)[Gal(b1-3)GlcNAc(b1-3)Gal(b1-4)GlcNAc(b1-3)Gal(b1-4)GlcNAc(b1-6)]Man(a1-6)[Gal(b1-3)GlcNAc(b1-3)Gal(b1-4)GlcNAc(b1-3)Gal(b1-4)GlcNAc(b1-2)Man(a1-3)]Man(b1-4)GlcNAc(b1-4)[Fuc(a1-6)]GlcNAc
# Outline: as §1
# [25] = target: Gal(b1-3)GlcNAc(b1-3)Gal(b1-4)GlcNAc(b1-6)[Gal(b1-3)GlcNAc(b1-3)]Gal(b1-4)Glc
# Outline: as §1
# [26] = target: Gal(b1-3)GlcNAc(b1-3)Gal(b1-4)[Fuc(a1-3)]GlcNAc
# Outline: as §1
# [27] = target: Gal(b1-3)GlcNAc(b1-3)Gal(b1-4)[Fuc(a1-3)]GlcNAc(b1-6)[Gal(b1-3)GlcNAc(b1-3)]Gal(b1-4)Glc
# Outline: as §1
# [28] = target: Gal(b1-3)GlcNAc(b1-3)GalNAc
# Outline: as §1
# [29] = target: Gal(b1-3)GlcNAc(b1-6)Gal(b1-4)GlcNAc
# Outline: as §1
# [30] = target: Gal(b1-3)GlcNAc(b1-6)GalNAc
# Outline: as §1
# [31] = target: Gal(b1-3)GlcNAc(b1-6)[Gal(b1-3)]GalNAc
# Outline: as §1
# [32] = target: Gal(b1-3)GlcNAc6S
# Outline: as §1
# [33] = target: Gal(b1-3)[Fuc(a1-4)]GlcNAc
# Outline: as §1
# [34] = target: Gal(b1-3)[Fuc(a1-4)]GlcNAc(b1-2)Man
# Outline: as §1
# [35] = target: Gal(b1-3)[Fuc(a1-4)]GlcNAc(b1-2)Man(a1-3)[Gal(b1-3)[Fuc(a1-4)]GlcNAc(b1-2)Man(a1-6)]Man(b1-4)GlcNAc(b1-4)[Fuc(a1-6)]GlcNAc
# Outline: as §1
# [36] = target: Gal(b1-3)[Fuc(a1-4)]GlcNAc(b1-3)Gal(b1-3)[Fuc(a1-4)]GlcNAc
# Outline: as §1
# [37] = target: Gal(b1-3)[Fuc(a1-4)]GlcNAc(b1-3)Gal(b1-4)[Fuc(a1-3)]GlcNAc
# Outline: as §1
# [38] = target: Gal(b1-3)[Fuc(a1-4)]GlcNAc(b1-6)GalNAc
# Outline: as §1
# [39] = target: Gal(b1-3)[GlcNAc(b1-6)]GalNAc
# Outline: as §1
# [40] = target: Gal(b1-3)[Neu5Ac(a2-6)]GalNAc
# Outline: as §1
# [41] = target: Gal(b1-3)[Neu5Ac(a2-6)]GlcNAc(b1-4)Gal(b1-4)Glc
# Outline: as §1
# [42] = target: Gal(b1-3)[Neu5Ac(b2-6)]GalNAc
# Outline: as §1
# [43] = target: Gal(b1-4)Gal
# Outline: as §1
# [44] = target: Gal(b1-4)GalNAc(a1-3)[Fuc(a1-2)]Gal(b1-4)GlcNAc
# Outline: as §1
# [45] = target: Gal(b1-4)GalNAc(b1-3)[Fuc(a1-2)]Gal(b1-4)GlcNAc
# Outline: as §1
binder,measurement,setting,value
B1,glycan array binding signal (z-score),[1],-0.535
same,glycan array binding signal (z-score),[2],-0.425
same,glycan array binding signal (z-score),[3],-0.337
same,glycan array binding signal (z-score),[4],-0.212
same,glycan array binding signal (z-score),[5],-0.375
same,glycan array binding signal (z-score),[6],-0.604
same,glycan array binding signal (z-score),[7],-0.575
same,glycan array binding signal (z-score),[8],3.41
same,glycan array binding signal (z-score),[9],0.818
same,glycan array binding signal (z-score),[10],-0.51
same,glycan array binding signal (z-score),[11],-0.574
same,glycan array binding signal (z-score),[12],-0.125
same,glycan array binding signal (z-score),[13],0.15
same,glycan array binding signal (z-score),[14],-0.011
same,glycan array binding signal (z-score),[15],0.069
same,glycan array binding signal (z-score),[16],-0.447
same,glycan array binding signal (z-score),[17],-0.313
same,glycan array binding signal (z-score),[18],-0.313
same,glycan array binding signal (z-score),[19],0.281
same,glycan array binding signal (z-score),[20],-0.276
same,glycan array binding signal (z-score),[21],-0.522
same,glycan array binding signal (z-score),[22],-0.703
same,glycan array binding signal (z-score),[23],1.78
same,glycan array binding signal (z-score),[24],0.093
same,glycan array binding signal (z-score),[25],-0.519
same,glycan array binding signal (z-score),[26],-0.433
same,glycan array binding signal (z-score),[27],-0.695
same,glycan array binding signal (z-score),[28],-0.596
same,glycan array binding signal (z-score),[29],-0.247
same,glycan array binding signal (z-score),[30],1.1
same,glycan array binding signal (z-score),[31],-0.506
same,glycan array binding signal (z-score),[32],-0.528
same,glycan array binding signal (z-score),[33],-0.117
same,glycan array binding signal (z-score),[34],-0.302
same,glycan array binding signal (z-score),[35],-0.004
same,glycan array binding signal (z-score),[36],0.226
same,glycan array binding signal (z-score),[37],0.251
same,glycan array binding signal (z-score),[38],-0.101
same,glycan array binding signal (z-score),[39],-0.307
same,glycan array binding signal (z-score),[40],0.118
same,glycan array binding signal (z-score),[41],-0.51
same,glycan array binding signal (z-score),[42],-0.148
same,glycan array binding signal (z-score),[43],-0.418
same,glycan array binding signal (z-score),[44],-0.839
same,glycan array binding signal (z-score),[45],-0.47

# From the supplement of paper PMC8728848
